# The supplement of paper PMC8728848
# This is one part of the list.
# B1: PLU (Photorhabdus luminiscence) (protein)
# chain: HHHHHHENLYFQSSIVFASIDPRSNPLQTSSQNYVDIPGLKLDVSKYSNSPCLTALITLNIPTPYASGNNFPGGNFAIVTDQGEQLAYGGFTYSSKIPENSGRMPFTLVARYSLASNVSTIKAQWSNIRGSTVHIDSYASISAVIQCNQLV
# Columns and labels:
# Experiment in all cases: glycan array binding signal (z-score within array); higher = stronger binding
# Details in all cases: glycan notation: IUPAC condensed, linker removed
# GlcNAc(b1-3)Gal(b1-4)Glc = biological target: GlcNAc(b1-3)Gal(b1-4)Glc
# Method in brief: (§1)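 Glycan array binding is given as a within-array Z-score, which can be read as non-binding when negative. The arrays, 3228 of them, came from the Consortium for Functional Glycomics database and were retained only where the protein sequence was available. Z-scores were averaged across arrays of the same protein sequence at different concentrations or buffers and across linkers.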
# [1] = biological target: GlcNAc(b1-3)Gal(b1-4)GlcNAc
# Method in brief: as §1
# [2] = biological target: GlcNAc(b1-3)Gal(b1-4)GlcNAc(b1-2)Man(a1-3)[GlcNAc(b1-3)Gal(b1-4)GlcNAc(b1-2)Man(a1-6)]Man(b1-4)GlcNAc(b1-4)GlcNAc
# Method in brief: as §1
# [3] = biological target: GlcNAc(b1-3)Gal(b1-4)GlcNAc(b1-2)Man(a1-3)[GlcNAc(b1-3)Gal(b1-4)GlcNAc(b1-2)Man(a1-6)]Man(b1-4)GlcNAc(b1-4)[Fuc(a1-6)]GlcNAc
# Method in brief: as §1
# [4] = biological target: GlcNAc(b1-3)Gal(b1-4)GlcNAc(b1-2)[GlcNAc(b1-3)Gal(b1-4)GlcNAc(b1-6)]Man(a1-6)[GlcNAc(b1-3)Gal(b1-4)GlcNAc(b1-2)Man(a1-3)]Man(b1-4)GlcNAc(b1-4)GlcNAc
# Method in brief: as §1
# [5] = biological target: GlcNAc(b1-3)Gal(b1-4)GlcNAc(b1-3)Gal(b1-4)GlcNAc
# Method in brief: as §1
# [6] = biological target: GlcNAc(b1-3)Gal(b1-4)GlcNAc(b1-3)Gal(b1-4)GlcNAc(b1-2)Man(a1-3)[GlcNAc(b1-3)Gal(b1-4)GlcNAc(b1-3)Gal(b1-4)GlcNAc(b1-2)Man(a1-6)]Man(b1-4)GlcNAc(b1-4)GlcNAc
# Method in brief: as §1
# [7] = biological target: GlcNAc(b1-3)Gal(b1-4)GlcNAc(b1-3)Gal(b1-4)GlcNAc(b1-2)Man(a1-3)[GlcNAc(b1-3)Gal(b1-4)GlcNAc(b1-3)Gal(b1-4)GlcNAc(b1-2)Man(a1-6)]Man(b1-4)GlcNAc(b1-4)[Fuc(a1-6)]GlcNAc
# Method in brief: as §1
# [8] = biological target: GlcNAc(b1-3)Gal(b1-4)GlcNAc(b1-3)Gal(b1-4)GlcNAc(b1-2)[GlcNAc(b1-3)Gal(b1-4)GlcNAc(b1-3)Gal(b1-4)GlcNAc(b1-6)]Man(a1-6)[GlcNAc(b1-3)Gal(b1-4)GlcNAc(b1-3)Gal(b1-4)GlcNAc(b1-2)Man(a1-3)]Man(b1-4)GlcNAc(b1-4)[Fuc(a1-6)]GlcNAc
# Method in brief: as §1
# [9] = biological target: GlcNAc(b1-3)Gal(b1-4)GlcNAc(b1-3)Gal(b1-4)GlcNAc(b1-3)Gal(b1-4)GlcNAc(b1-2)Man(a1-3)[GlcNAc(b1-3)Gal(b1-4)GlcNAc(b1-3)Gal(b1-4)GlcNAc(b1-3)Gal(b1-4)GlcNAc(b1-2)Man(a1-6)]Man(b1-4)GlcNAc(b1-4)GlcNAc
# Method in brief: as §1
# [10] = biological target: GlcNAc(b1-3)Gal(b1-4)GlcNAc(b1-3)Gal(b1-4)GlcNAc(b1-3)Gal(b1-4)GlcNAc(b1-2)Man(a1-3)[GlcNAc(b1-3)Gal(b1-4)GlcNAc(b1-3)Gal(b1-4)GlcNAc(b1-3)Gal(b1-4)GlcNAc(b1-2)Man(a1-6)]Man(b1-4)GlcNAc(b1-4)[Fuc(a1-6)]GlcNAc
# Method in brief: as §1
# [11] = biological target: GlcNAc(b1-3)Gal(b1-4)GlcNAc(b1-3)Gal(b1-4)GlcNAc(b1-3)Gal(b1-4)GlcNAc(b1-2)[GlcNAc(b1-3)Gal(b1-4)GlcNAc(b1-3)Gal(b1-4)GlcNAc(b1-3)Gal(b1-4)GlcNAc(b1-6)]Man(a1-6)[GlcNAc(b1-3)Gal(b1-4)GlcNAc(b1-3)Gal(b1-4)GlcNAc(b1-3)Gal(b1-4)GlcNAc(b1-2)Man(a1-3)]Man(b1-4)GlcNAc(b1-4)[Fuc(a1-6)]GlcNAc
# Method in brief: as §1
# [12] = biological target: GlcNAc(b1-3)Gal(b1-4)GlcNAc(b1-3)Gal(b1-4)GlcNAc(b1-3)Gal(b1-4)GlcNAc(b1-3)Gal(b1-4)GlcNAc(b1-2)Man(a1-3)[GlcNAc(b1-3)Gal(b1-4)GlcNAc(b1-3)Gal(b1-4)GlcNAc(b1-3)Gal(b1-4)GlcNAc(b1-3)Gal(b1-4)GlcNAc(b1-2)Man(a1-6)]Man(b1-4)GlcNAc(b1-4)GlcNAc
# Method in brief: as §1
# [13] = biological target: GlcNAc(b1-3)Gal(b1-4)GlcNAc(b1-3)Gal(b1-4)GlcNAc(b1-3)Gal(b1-4)GlcNAc(b1-3)Gal(b1-4)GlcNAc(b1-2)Man(a1-3)[GlcNAc(b1-3)Gal(b1-4)GlcNAc(b1-3)Gal(b1-4)GlcNAc(b1-3)Gal(b1-4)GlcNAc(b1-3)Gal(b1-4)GlcNAc(b1-2)Man(a1-6)]Man(b1-4)GlcNAc(b1-4)[Fuc(a1-6)]GlcNAc
# Method in brief: as §1
# [14] = biological target: GlcNAc(b1-3)Gal(b1-4)GlcNAc(b1-3)Gal(b1-4)GlcNAc(b1-3)Gal(b1-4)GlcNAc(b1-3)Gal(b1-4)GlcNAc(b1-2)[GlcNAc(b1-3)Gal(b1-4)GlcNAc(b1-3)Gal(b1-4)GlcNAc(b1-3)Gal(b1-4)GlcNAc(b1-3)Gal(b1-4)GlcNAc(b1-6)]Man(a1-6)[GlcNAc(b1-3)Gal(b1-4)GlcNAc(b1-3)Gal(b1-4)GlcNAc(b1-3)Gal(b1-4)GlcNAc(b1-3)Gal(b1-4)GlcNAc(b1-2)Man(a1-3)]Man(b1-4)GlcNAc(b1-4)[Fuc(a1-6)]GlcNAc
# Method in brief: as §1
# [15] = biological target: GlcNAc(b1-3)Gal(b1-4)GlcNAc(b1-3)Gal(b1-4)GlcNAc(b1-3)GalNAc
# Method in brief: as §1
# [16] = biological target: GlcNAc(b1-3)Gal(b1-4)GlcNAc(b1-3)GalNAc
# Method in brief: as §1
# [17] = biological target: GlcNAc(b1-3)Gal(b1-4)GlcNAc(b1-3)[GlcNAc(b1-3)Gal(b1-4)GlcNAc(b1-3)]GalNAc
# Method in brief: as §1
# [18] = biological target: GlcNAc(b1-3)Gal(b1-4)GlcNAc(b1-6)[Gal(b1-3)]GalNAc
# Method in brief: as §1
# [19] = biological target: GlcNAc(b1-3)Gal(b1-4)GlcNAc(b1-6)[GlcNAc(b1-3)Gal(b1-3)]GalNAc
# Method in brief: as §1
# [20] = biological target: GlcNAc(b1-3)Gal(b1-4)GlcNAc(b1-6)[GlcNAc(b1-3)]Gal(b1-4)GlcNAc
# Method in brief: as §1
# GlcNAc(b1-3)GalNAc = biological target: GlcNAc(b1-3)GalNAc
# Method in brief: as §1
# GlcNAc(b1-3)Man = biological target: GlcNAc(b1-3)Man
# Method in brief: as §1
# [21] = biological target: GlcNAc(b1-3)[GlcNAc(b1-4)][GlcNAc(b1-6)]GlcNAc
# Method in brief: as §1
# [22] = biological target: GlcNAc(b1-3)[GlcNAc(b1-6)]Gal(b1-4)GlcNAc
# Method in brief: as §1
# [23] = biological target: GlcNAc(b1-3)[GlcNAc(b1-6)]GalNAc
# Method in brief: as §1
# [24] = biological target: GlcNAc(b1-4)Gal(b1-4)GlcNAc
# Method in brief: as §1
# GlcNAc(b1-4)GlcNAc = biological target: GlcNAc(b1-4)GlcNAc
# Method in brief: as §1
# [25] = biological target: GlcNAc(b1-4)GlcNAc(b1-4)GlcNAc
# Method in brief: as §1
# [26] = biological target: GlcNAc(b1-4)GlcNAc(b1-4)GlcNAc(b1-4)GlcNAc(b1-4)GlcNAc
# Method in brief: as §1
# [27] = biological target: GlcNAc(b1-4)GlcNAc(b1-4)GlcNAc(b1-4)GlcNAc(b1-4)GlcNAc(b1-4)GlcNAc
# Method in brief: as §1
# [28] = biological target: GlcNAc(b1-4)[GlcNAc(b1-6)]GalNAc
# Method in brief: as §1
# [29] = biological target: GlcNAc(b1-6)Gal(b1-4)GlcNAc
# Method in brief: as §1
# GlcNAc(b1-6)GalNAc = biological target: GlcNAc(b1-6)GalNAc
# Method in brief: as §1
# [30] = biological target: GlcNAc6S(b1-3)Gal(b1-4)GlcNAc
# Method in brief: as §1
# Kdn(a2-3)Gal(b1-3)GalNAc = biological target: Kdn(a2-3)Gal(b1-3)GalNAc
# Method in brief: as §1
# Kdn(a2-3)Gal(b1-3)GlcNAc = biological target: Kdn(a2-3)Gal(b1-3)GlcNAc
# Method in brief: as §1
# Kdn(a2-3)Gal(b1-4)Glc = biological target: Kdn(a2-3)Gal(b1-4)Glc
# Method in brief: as §1
# Kdn(a2-3)Gal(b1-4)GlcNAc = biological target: Kdn(a2-3)Gal(b1-4)GlcNAc
# Method in brief: as §1
# [31] = biological target: Kdn(a2-3)Gal(b1-4)[Fuc(a1-3)]GlcNAc
# Method in brief: as §1
# Kdn(a2-6)Gal(b1-4)GlcNAc = biological target: Kdn(a2-6)Gal(b1-4)GlcNAc
# Method in brief: as §1
# [32] = biological target: Man(a1-2)Man(a1-2)Man(a1-3)Man
# Method in brief: as §1
# [33] = biological target: Man(a1-2)Man(a1-2)Man(a1-6)[Man(a1-3)]Man
# Method in brief: as §1
# Man(a1-2)Man(a1-3)Man = biological target: Man(a1-2)Man(a1-3)Man
# Method in brief: as §1
# [34] = biological target: Man(a1-2)Man(a1-3)[Man(a1-2)Man(a1-6)]Man
# Method in brief: as §1
binder,measurement,setting,value
B1,glycan array binding signal (z-score),GlcNAc(b1-3)Gal(b1-4)Glc,-0.235
same,glycan array binding signal (z-score),[1],-0.292
same,glycan array binding signal (z-score),[2],-0.212
same,glycan array binding signal (z-score),[3],-0.192
same,glycan array binding signal (z-score),[4],-0.248
same,glycan array binding signal (z-score),[5],-0.263
same,glycan array binding signal (z-score),[6],-0.156
same,glycan array binding signal (z-score),[7],-0.213
same,glycan array binding signal (z-score),[8],-0.158
same,glycan array binding signal (z-score),[9],-0.065
same,glycan array binding signal (z-score),[10],-0.148
same,glycan array binding signal (z-score),[11],-0.258
same,glycan array binding signal (z-score),[12],-0.221
same,glycan array binding signal (z-score),[13],-0.215
same,glycan array binding signal (z-score),[14],-0.155
same,glycan array binding signal (z-score),[15],-0.301
same,glycan array binding signal (z-score),[16],-0.284
same,glycan array binding signal (z-score),[17],-0.337
same,glycan array binding signal (z-score),[18],-0.293
same,glycan array binding signal (z-score),[19],-0.212
same,glycan array binding signal (z-score),[20],-0.345
same,glycan array binding signal (z-score),GlcNAc(b1-3)GalNAc,-0.342
same,glycan array binding signal (z-score),GlcNAc(b1-3)Man,-0.295
same,glycan array binding signal (z-score),[21],-0.158
same,glycan array binding signal (z-score),[22],-0.267
same,glycan array binding signal (z-score),[23],-0.188
same,glycan array binding signal (z-score),[24],-0.134
same,glycan array binding signal (z-score),GlcNAc(b1-4)GlcNAc,-0.327
same,glycan array binding signal (z-score),[25],-0.336
same,glycan array binding signal (z-score),[26],-0.29
same,glycan array binding signal (z-score),[27],-0.294
same,glycan array binding signal (z-score),[28],-0.269
same,glycan array binding signal (z-score),[29],-0.306
same,glycan array binding signal (z-score),GlcNAc(b1-6)GalNAc,-0.336
same,glycan array binding signal (z-score),[30],-0.297
same,glycan array binding signal (z-score),Kdn(a2-3)Gal(b1-3)GalNAc,-0.25
same,glycan array binding signal (z-score),Kdn(a2-3)Gal(b1-3)GlcNAc,-0.273
same,glycan array binding signal (z-score),Kdn(a2-3)Gal(b1-4)Glc,-0.256
same,glycan array binding signal (z-score),Kdn(a2-3)Gal(b1-4)GlcNAc,-0.224
same,glycan array binding signal (z-score),[31],-0.331
same,glycan array binding signal (z-score),Kdn(a2-6)Gal(b1-4)GlcNAc,-0.225
same,glycan array binding signal (z-score),[32],-0.265
same,glycan array binding signal (z-score),[33],-0.269
same,glycan array binding signal (z-score),Man(a1-2)Man(a1-3)Man,-0.32
same,glycan array binding signal (z-score),[34],-0.268
